Measurements as given in PubChem BioAssay AID1030 (National Center for Advancing Translational Sciences (NCATS), 2008).
Screen size: about 220,000 compounds; about 16,000 (7.3%) were called active. The inconclusive results got no clear call from the source; some entries with a clear call stand among them for comparison. Calls come from the whole dose curve; as a rule, active = well fitted inhibition curve with a large enough effect (not every such curve was filed as active); inconclusive = small, poorly fitted or top-dose-only effect, or another doubt; inactive = no such curve, though single readings can be large or run the other way. Potencies of inconclusive entries are left out as doubtful fits.
Potency is the fitted concentration of half-maximal effect; tags give direction and shape of the fitted curve.

Each compound was assayed against Aldehyde dehydrogenase 1A1 (Homo sapiens) (UniProt P00352) (assay: qHTS Assay for Inhibitors of Aldehyde Dehydrogenase 1 (ALDH1A1)). Conditions: Purified ALDH1A1, NADH fluorescence, propionaldehyde substrate; series mostly up to 75.3 µM.
Chain of UniProt P00352 (P00352 whole entry, looked up): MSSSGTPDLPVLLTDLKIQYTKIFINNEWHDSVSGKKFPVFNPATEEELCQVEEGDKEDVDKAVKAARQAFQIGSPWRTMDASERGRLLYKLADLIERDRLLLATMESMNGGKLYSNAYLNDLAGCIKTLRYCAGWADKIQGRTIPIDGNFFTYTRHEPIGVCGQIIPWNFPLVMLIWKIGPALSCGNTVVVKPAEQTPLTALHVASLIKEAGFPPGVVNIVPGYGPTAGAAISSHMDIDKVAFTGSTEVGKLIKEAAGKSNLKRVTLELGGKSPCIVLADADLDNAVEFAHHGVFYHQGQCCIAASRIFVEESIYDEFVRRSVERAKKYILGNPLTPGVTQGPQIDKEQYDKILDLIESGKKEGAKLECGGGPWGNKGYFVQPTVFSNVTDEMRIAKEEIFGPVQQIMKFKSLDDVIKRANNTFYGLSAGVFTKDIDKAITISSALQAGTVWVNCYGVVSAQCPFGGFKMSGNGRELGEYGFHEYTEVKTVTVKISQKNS
For `CCOC(=O)CSc1snnc1-c1ccccc1`, the Potency was “inactive”.
`c1ccc(Nc2ncnc3c2oc2ccccc23)cc1` was tested, and the Potency was inconclusive [inhibitor, partial curve].
With `Cc1c(NC(=S)N/N=C/c2ccc(N(C)C)cc2)c(=O)n(-c2ccccc2)n1C` the Potency was inconclusive [inhibitor, partial curve].
For `Fc1ccc2nc(Nc3nc4c(F)cccc4s3)sc2c1`, the Potency was inconclusive [inhibitor, single point].
In the case of `O=C(CC(C(=O)O)c1ccccc1)Nc1ccccc1` (stereo unspecified), the Potency is reported as “inactive”.
In the case of `CC(C)CC1(C)N=C(c2ccccc2)C(=S)N1` (stereo unspecified), the Potency is reported as inconclusive [inhibitor, single point].
`CCOc1cc2[nH]c(=O)n(CCCN3CCN(c4ccc(OC)cc4)CC3)c(=O)c2cc1OCC` was tested, and the Potency was “inactive”.
With `COc1ccccc1-n1c(-c2ccccc2)n[nH]c1=S` the Potency was inconclusive [inhibitor, single point].
`COc1ccc(CCNC(=O)c2cc(-c3ccc(C)cc3O)n[nH]2)cc1OC` was tested, and the Potency was “inactive”.
In the case of `COc1ccc(C(=O)c2ccc(N3CCN(C(=O)c4ccc(F)cc4)CC3)c(F)c2)cc1Br`, the Potency is reported as inconclusive [inhibitor, single point].
For `COc1ccc(CN2CCN(C(=O)CC(C)C)CC2)cc1OC`, the Potency was “inactive”.
In the case of `O=C(c1ccco1)N(CCC(c1ccccc1)c1ccco1)Cc1ccccc1` (stereo unspecified), the Potency is reported as active: 8.91 µM.
`CC1CCCCC1NC(=O)/C=C/c1nc2ccccc2s1` (stereo unspecified) was tested, and the Potency was inconclusive [inhibitor, single point].
With `CCOc1cccc(/C(O)=C2/C(=O)C(=O)N(CCN3CCOCC3)C2c2cccnc2)c1` (stereo unspecified) the Potency was inconclusive [inhibitor, single point].
In the case of `N[C@@H](Cc1cc(I)c(Oc2ccc(O)cc2)c(I)c1)C(=O)O`, the Potency is reported as “inactive”.
In the case of `CCSc1nnc(NC(=O)c2cccc(OCc3c(C)noc3C)c2)s1`, the Potency is reported as inconclusive [inhibitor, single point].
With `COc1ccc(/C=C/C(=O)N2CCN(C)CC2)cc1S(=O)(=O)N1CCCCC1` the Potency was inconclusive [inhibitor, single point].
With `CCOCCCNC(=O)C(C)NS(=O)(=O)c1ccc(C)cc1` (stereo unspecified) the Potency was inconclusive [inhibitor, single point].
`Cc1ccnc(NC(=O)/C=C/c2ccccc2[N+](=O)[O-])c1` was tested, and the Potency was inconclusive [inhibitor, partial curve, poor fit].
In the case of `CCN(CC)c1cccc(OC2=NS(=O)(=O)c3ccccc32)c1`, the Potency is reported as active: 22.4 µM.
For `FC(F)(Cl)c1nnc2ccc(Sc3ccccn3)nn12`, the Potency was inconclusive [inhibitor, single point].
With `C/C(=N\OC(=O)c1c(-c2ccccc2Cl)noc1C)c1nccs1` the Potency was inconclusive [inhibitor, single point].
In the case of `CCOC(=O)C1(Cc2ccccc2)CCN(Cc2cc(OC)c3c(c2)OCO3)CC1`, the Potency is reported as “inactive”.
For `COc1ccc(C(=O)Nc2ncc3c(n2)CC(c2ccco2)CC3=O)cc1` (stereo unspecified), the Potency was inconclusive [inhibitor, single point].
`Cc1scc(C(=O)NNC(=S)NCC2CCCO2)c1C` (stereo unspecified) was tested, and the Potency was inconclusive [inhibitor, single point].
In the case of `COc1ccc(S(=O)(=O)N2CCCC(C(=O)N3CCCCCC3)C2)cc1` (stereo unspecified), the Potency is reported as inconclusive [inhibitor, partial curve].
With `Nc1nc(-c2nonc2N)no1` the Potency was “inactive”.
`S=C1NC2=C(CCC/C2=C\c2ccc(Cl)cc2)C(c2ccc(Cl)cc2)N1` (stereo unspecified) was tested, and the Potency was active: 12.6 µM.
For `CCCCCCn1c(N2CCN(c3ccccc3)CC2)nc2c1c(=O)n(C)c(=O)n2C`, the Potency was inconclusive [inhibitor, single point].
In the case of `COc1ccc(-c2ccc(-c3cc(=O)oc4cc(OC)c(OC)c(OC)c34)cc2)cc1F`, the Potency is reported as inconclusive [inhibitor, single point].
In the case of `O=C(Cc1cccs1)N1CCN(c2nc(-c3ccc(Cl)cc3)cs2)CC1`, the Potency is reported as inconclusive [inhibitor, single point].
For `CN1CCN(c2nc(-c3ccccc3)nc(-c3ccc(F)cc3)c2C#N)CC1`, the Potency was “inactive”.
With `COc1cccc(CN(C)CC(=O)Nc2sc3c(c2C#N)CCC3)c1` the Potency was inconclusive [inhibitor, single point].
In the case of `CC1CC(=O)c2c(cc3c(-c4c(O)cc(O)c5c(O)c6c(cc45)OC(C)CC6=O)c(O)cc(O)c3c2O)O1` (stereo unspecified), the Potency is reported as inconclusive [inhibitor, single point].
For `O=C1Nc2ccc(S(=O)(=O)NCC3CCCO3)c3cccc1c23` (stereo unspecified), the Potency was inconclusive [inhibitor, partial curve].
In the case of `CCCCOc1ncnc2c1[nH]c1ccc(OCC)cc12`, the Potency is reported as “inactive”.
For `c1ccc(CSc2nnc(SCc3ccccn3)s2)nc1`, the Potency was “inactive”.
For `O=C(Nc1cccc(Cl)c1)c1ccc2c(c1)SC1=NS(=O)(=O)CCN12`, the Potency was inconclusive [inhibitor, single point].
With `O=C1NC2(CCCCC2)C(=O)N1/N=C/c1ccc(O)cc1O` the Potency was inconclusive [inhibitor, partial curve].
For `CCOc1ncccc1C(=O)Nc1ccc2c(C)cc(=O)oc2c1`, the Potency was inconclusive [inhibitor, partial curve].
In the case of `NNC(=S)NCc1cccnc1`, the Potency is reported as inconclusive [inhibitor, single point].
In the case of `C=CCn1c(C)c(C(C)=O)c(N2CCN(c3ccccc3)CC2)nc1=S`, the Potency is reported as active: 28.2 µM.
For `CCCSc1nnc(NC(=O)Cc2ccc(OC)c(OC)c2)s1`, the Potency was inconclusive [inhibitor, partial curve].
For `N#Cc1ccc(CN2CCCC3(CCN(C(=O)c4ccco4)CC3)C2)cc1`, the Potency was inconclusive [inhibitor, single point].
`CCCC(=O)Nc1ccc(S(=O)(=O)N2CCCC2)cc1` was tested, and the Potency was “inactive”.
For `CCOc1c(C(N)=O)c(-c2ccccc2)c2c(=O)[nH]c3ccccc3n12`, the Potency was inconclusive [inhibitor, partial curve].
